Here are results for 43 molecules from PMC4336329 (PLoS ONE, 2015).

About 2,200 (0.71%) of roughly 310,000 compounds showed an effect of 50% or more. The effect is printed as a negative number. This is one part of the list.

Chain of human ether-à-go-go-related gene (hERG) potassium channel (Q12809 whole entry, looked up): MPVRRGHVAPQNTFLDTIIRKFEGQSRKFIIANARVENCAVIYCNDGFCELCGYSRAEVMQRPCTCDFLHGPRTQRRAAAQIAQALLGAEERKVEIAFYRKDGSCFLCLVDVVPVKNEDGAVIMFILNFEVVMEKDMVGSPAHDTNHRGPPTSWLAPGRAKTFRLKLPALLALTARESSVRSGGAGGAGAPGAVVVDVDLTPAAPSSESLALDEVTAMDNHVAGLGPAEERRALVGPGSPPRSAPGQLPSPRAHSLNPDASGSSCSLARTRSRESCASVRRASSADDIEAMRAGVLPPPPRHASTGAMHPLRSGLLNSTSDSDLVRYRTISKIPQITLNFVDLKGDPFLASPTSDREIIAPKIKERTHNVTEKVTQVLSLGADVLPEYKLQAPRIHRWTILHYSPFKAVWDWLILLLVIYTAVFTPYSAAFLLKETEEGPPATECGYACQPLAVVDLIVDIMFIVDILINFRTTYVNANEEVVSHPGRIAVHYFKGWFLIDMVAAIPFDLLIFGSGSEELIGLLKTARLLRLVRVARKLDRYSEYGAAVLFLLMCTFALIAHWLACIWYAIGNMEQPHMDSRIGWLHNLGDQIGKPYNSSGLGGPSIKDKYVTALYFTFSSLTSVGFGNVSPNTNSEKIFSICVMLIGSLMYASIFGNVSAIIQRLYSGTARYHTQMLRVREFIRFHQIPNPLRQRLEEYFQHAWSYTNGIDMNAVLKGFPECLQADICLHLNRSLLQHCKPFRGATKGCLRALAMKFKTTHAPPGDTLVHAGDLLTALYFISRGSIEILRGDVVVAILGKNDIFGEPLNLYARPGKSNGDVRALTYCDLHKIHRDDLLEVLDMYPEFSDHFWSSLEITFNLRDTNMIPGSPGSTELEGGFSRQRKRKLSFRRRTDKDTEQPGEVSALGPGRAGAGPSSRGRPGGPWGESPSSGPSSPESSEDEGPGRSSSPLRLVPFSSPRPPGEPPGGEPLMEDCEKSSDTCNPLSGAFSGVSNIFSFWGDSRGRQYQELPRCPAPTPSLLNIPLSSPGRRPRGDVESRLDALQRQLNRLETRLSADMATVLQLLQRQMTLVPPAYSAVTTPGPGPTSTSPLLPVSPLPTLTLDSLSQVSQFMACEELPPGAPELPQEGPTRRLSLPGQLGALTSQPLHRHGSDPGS

The experiment concerns the target human ether-à-go-go-related gene (hERG) potassium channel (human, UniProt Q12809). In words: primary screen, population patch clamp on CHO cells stably expressing hERG.
Regarding `COc1ccc(C(=O)Nc2ccc3nc(C)sc3c2)cc1OC`, the “hERG current change (%, negative = inhibition) at 1uM” value came to 6.38%.

In the case of `O=S1(=O)CCN2C(Cc3ccc(SC(F)F)cc3)=CSC2=N1`, the “hERG current change (%, negative = inhibition) at 1uM” value was -3.49%.

Take `CCOC(=O)c1c(/N=C/N(C)C)sc(/C=N/Nc2ccccc2)c1-c1ccccc1`: the “hERG current change (%, negative = inhibition) at 1uM” value is given as 6.65%.

In the case of `CCN1CCN(C(=S)Nc2ccc(Cl)c(Cl)c2)CC1`, the “hERG current change (%, negative = inhibition) at 1uM” value is listed as 11.9%.

On to `CC1CCc2cc(F)cc3c(O)c(C(=O)NCC4CCCO4)c(=O)n1c23` (stereo not shown), for which the “hERG current change (%, negative = inhibition) at 1uM” value is -1.81%.

In the case of `COc1ccc(Nc2cccc(Cl)c2)c(C(=O)O)c1`, the “hERG current change (%, negative = inhibition) at 1uM” value is on record as 3.16%.

As for `CCOP(=S)(OCC)C(O)CCCCCn1c(=O)c(F)cn(C2CCCO2)c1=O` (stereo not shown), the “hERG current change (%, negative = inhibition) at 1uM” value came out at 8.04%.

For the molecule `COc1ccc(C(=O)N(C)c2ccccc2C(=O)NCCc2ccccc2)cc1`, the “hERG current change (%, negative = inhibition) at 1uM” value worked out at 3.87%.

With `O=C(Nc1ccncc1)c1sc2ccccc2c1Cl`, the “hERG current change (%, negative = inhibition) at 1uM” value worked out at 11.2%.

For the molecule `CCCCOc1ccc(C(=O)NCC(=O)NCC2CCCO2)cc1` (stereo not shown), the “hERG current change (%, negative = inhibition) at 1uM” value turned out to be 7.53%.

In the case of `CCN1C(=O)CC(C(=O)OC)=C1C`, the “hERG current change (%, negative = inhibition) at 1uM” value amounted to 16.2%.

Consider `CC1(C)NC(=O)N(CCOCCOc2ccccc2)C1=O`, for which the “hERG current change (%, negative = inhibition) at 1uM” value was 16.2%.

With `CCCOc1nnnn1-c1ccccc1`, the “hERG current change (%, negative = inhibition) at 1uM” value was 7.94%.

On to `Cc1cc(NC(=O)CCC(=O)N(Cc2ccccc2)C(C(=O)NC2CCCC2)c2ccc(C)o2)no1` (stereo not shown), for which the “hERG current change (%, negative = inhibition) at 1uM” value worked out at 4.27%.

With `COc1ccc(-n2nc3c(c2NC(=O)C2CC2)CS(=O)(=O)C3)cc1`, the “hERG current change (%, negative = inhibition) at 1uM” value was found to be 13.5%.

As for `COc1ccc(NC(=O)CSCc2ccc(C#N)cc2)c(OC)c1`, the “hERG current change (%, negative = inhibition) at 1uM” value is 3.47%.

`CCn1nc(C)cc1C(=O)N1CCCC(N2CCN(c3cccc(Cl)c3)CC2)C1` (stereo not shown): the “hERG current change (%, negative = inhibition) at 1uM” value is reported as -3.51%.

Turning to `CCCc1nnc(SCC(=O)N2C(C)CCCC2C)n1CC` (stereo not shown), the “hERG current change (%, negative = inhibition) at 1uM” value is 5.25%.

As to `O=C(CSc1ccccn1)Nc1ccc(Cl)c([N+](=O)[O-])c1`, the “hERG current change (%, negative = inhibition) at 1uM” value is -3.54%.

Turning to `CCOc1ccc(N(C(=O)CNC(=O)c2ccco2)C(C(=O)NC2CCCC2)c2ccco2)cc1` (stereo not shown), the “hERG current change (%, negative = inhibition) at 1uM” value is 15.2%.

As to `CCC1(c2ccc(F)cc2)NC(=O)N(CC(=O)NCC(=O)Nc2cccc(C)c2C)C1=O` (stereo not shown), the “hERG current change (%, negative = inhibition) at 1uM” value is -0.296%.

For the molecule `COc1ccccc1OCC(=O)O/N=C(\N)c1ccccn1`, the “hERG current change (%, negative = inhibition) at 1uM” value came to 11.1%.

On to `O=C(O)c1cc(S(=O)(=O)NC2CCCc3ccccc32)ccc1O` (stereo not shown), for which the “hERG current change (%, negative = inhibition) at 1uM” value was determined as 11.9%.

As to `CC1(C)CC(N2CCC(=O)NC2=S)CC(C)(C)N1`, the “hERG current change (%, negative = inhibition) at 1uM” value was 7.15%.

For `CCN(CC(=O)Nc1c(F)cccc1F)C(=O)COc1ccc2c(C)cc(=O)oc2c1`, the “hERG current change (%, negative = inhibition) at 1uM” value was 1.9%.

For the molecule `O=c1[nH]c2ccccc2n1C1CCN(CCCC(c2ccc(F)cc2)c2ccc(F)cc2)CC1`, the “hERG current change (%, negative = inhibition) at 1uM” value is on record as -76.5%.

With `Cc1oc(-c2ccccc2F)nc1CN1CCC(C(=O)NCCC2=CCCCC2)CC1`, the “hERG current change (%, negative = inhibition) at 1uM” value is on record as -51.1%.

Consider `Cn1ncc(Br)c1C(=O)Nc1ccc(Cl)cn1`, for which the “hERG current change (%, negative = inhibition) at 1uM” value was 5.06%.

On to `CC(C)(C)NC(=O)CCN(/N=C/c1ccncc1)C1=NS(=O)(=O)c2ccccc21`, for which the “hERG current change (%, negative = inhibition) at 1uM” value is 5.78%.

In the case of `Cc1ccc(S(=O)(=O)NCC2CCC(C(=O)NCCCOC(C)C)CC2)cc1` (stereo not shown), the “hERG current change (%, negative = inhibition) at 1uM” value is on record as 6.2%.

Regarding `COc1cc2nc(N3CCN(C(=O)C4COc5ccccc5O4)CC3)nc(N)c2cc1OC.CS(=O)(=O)O` (stereo not shown), the “hERG current change (%, negative = inhibition) at 1uM” value is -0.725%.

Take `O=C(Cc1ccccc1Cl)N/N=C/c1cccnc1`: the “hERG current change (%, negative = inhibition) at 1uM” value was 8.88%.

On to `COc1ccc(NC(=S)NCCCN2CCOCC2)cc1`, for which the “hERG current change (%, negative = inhibition) at 1uM” value came out at 9.83%.

`C=CCNC(=O)CSc1nnc(-c2ccccc2Cl)n1-c1c(C)n(C)n(-c2ccccc2)c1=O`: the “hERG current change (%, negative = inhibition) at 1uM” value is given as -11.3%.

Consider `Cc1ccc(-c2cc(C(=O)N/N=C/C=C/c3ccccc3)n[nH]2)s1`, for which the “hERG current change (%, negative = inhibition) at 1uM” value stood at 7.95%.

Consider `COc1ccc(NC(=O)CCNC(=O)Cn2cnc3sc4c(c3c2=O)CCCC4)cc1OC`, for which the “hERG current change (%, negative = inhibition) at 1uM” value is listed as 15.2%.

For `C=CCn1c(-c2ccc([N+](=O)[O-])cc2)n[nH]c1=S`, the “hERG current change (%, negative = inhibition) at 1uM” value is given as 10.7%.

Turning to `O=S(=O)(c1ccc2c(c1)nc(COc1ccc(Cl)cc1)n2CC1CCCO1)N1CCOCC1` (stereo not shown), the “hERG current change (%, negative = inhibition) at 1uM” value is listed as -19%.

Regarding `O=C1c2ccccc2C(=O)C12OC2c1ccc(Cl)cc1Cl` (stereo not shown), the “hERG current change (%, negative = inhibition) at 1uM” value was 10.9%.

As to `COC(=O)C(NC(=O)C(CC(C)C)NC(=O)C1CCC(C)CC1)C(C)C` (stereo not shown), the “hERG current change (%, negative = inhibition) at 1uM” value came out at 7.7%.

On to `Nc1nonc1-n1nnc(C(=O)N/N=C/c2ccc(Br)cc2)c1CSC1=NCCS1`, for which the “hERG current change (%, negative = inhibition) at 1uM” value was 3.25%.

For `CCOC(=O)c1ccccc1NC(=O)CSc1nnc(C)c(=O)[nH]1`, the “hERG current change (%, negative = inhibition) at 1uM” value was determined as 13.2%.

With `O=C(COn1nnc2ccc(S(=O)(=O)N3CCOCC3)cc21)Nc1c(F)c(F)c(F)c(F)c1F`, the “hERG current change (%, negative = inhibition) at 1uM” value worked out at 7.05%.
